In publication PMC9352240:

Biological target: recombinant full-length wild-type human tau isoform 0N4R (human) (UniProt P10636)
Assay: thioflavin T fluorescence aggregation kinetics; self-aggregation of recombinant tau alone; 30 uM tau, 60 ug/ml heparin, 10 uM ThT, 20 mM Tris pH 7.4, 37°C; t1/2 = time to half maximum ThT intensity

t1/2 of self-aggregation (ThT fluorescence): 14.7 h
Substance: recombinant full-length wild-type human tau isoform 0N4R (a stretch of the chain, letters omitted) (natural protein; other documents disagree on this pair)
